Assay results published in publication PMC4336329 (PLoS ONE, 2015).
Hit rate of the full screen: of about 310,000 compounds, about 14,000 (4.5%) showed an effect of 50% or more. Effects have a minus sign here. The list shows a part of the results.

Molecular target: human ether-à-go-go-related gene (hERG) potassium channel (human, UniProt Q12809)
Test: primary screen, population patch clamp on CHO cells stably expressing hERG
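Also: peak tail current of the secondary pulse compared with the same well before compound.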

human ether-à-go-go-related gene (hERG) potassium channel, sequence (Q12809 whole entry, looked up): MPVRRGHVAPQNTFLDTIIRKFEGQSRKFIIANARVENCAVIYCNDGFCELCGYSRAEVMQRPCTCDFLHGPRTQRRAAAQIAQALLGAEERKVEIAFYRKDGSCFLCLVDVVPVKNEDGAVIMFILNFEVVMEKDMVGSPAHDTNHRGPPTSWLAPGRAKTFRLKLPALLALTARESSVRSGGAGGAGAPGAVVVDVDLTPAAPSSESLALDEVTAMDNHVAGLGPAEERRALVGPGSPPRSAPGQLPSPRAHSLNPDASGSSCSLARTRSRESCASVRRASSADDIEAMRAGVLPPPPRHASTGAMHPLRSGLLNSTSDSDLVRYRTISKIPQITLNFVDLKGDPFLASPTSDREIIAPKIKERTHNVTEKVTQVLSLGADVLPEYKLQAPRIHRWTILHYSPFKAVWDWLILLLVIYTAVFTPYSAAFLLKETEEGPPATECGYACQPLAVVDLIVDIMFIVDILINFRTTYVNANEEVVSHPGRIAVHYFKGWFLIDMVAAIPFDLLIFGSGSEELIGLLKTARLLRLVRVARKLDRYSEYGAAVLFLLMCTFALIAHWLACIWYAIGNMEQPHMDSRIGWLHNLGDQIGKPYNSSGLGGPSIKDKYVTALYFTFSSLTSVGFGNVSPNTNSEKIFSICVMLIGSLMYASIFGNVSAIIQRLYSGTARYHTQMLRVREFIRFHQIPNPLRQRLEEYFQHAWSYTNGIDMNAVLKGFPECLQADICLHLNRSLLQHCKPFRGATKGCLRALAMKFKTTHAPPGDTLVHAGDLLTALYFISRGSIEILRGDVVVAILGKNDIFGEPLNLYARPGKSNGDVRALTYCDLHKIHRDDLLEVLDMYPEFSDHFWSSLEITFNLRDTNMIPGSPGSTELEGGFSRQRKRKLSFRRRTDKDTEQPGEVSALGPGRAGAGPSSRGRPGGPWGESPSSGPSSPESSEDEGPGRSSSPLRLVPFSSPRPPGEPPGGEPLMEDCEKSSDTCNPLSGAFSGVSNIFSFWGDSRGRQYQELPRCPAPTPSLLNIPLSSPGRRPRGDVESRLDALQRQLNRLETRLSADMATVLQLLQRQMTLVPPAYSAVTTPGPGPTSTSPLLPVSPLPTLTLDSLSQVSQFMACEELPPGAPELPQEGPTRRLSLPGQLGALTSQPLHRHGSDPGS

SMILES	hERG current change (%, negative = inhibition) at 10uM [%]
Cc1ccc2c(c1)-n1c(nc3cc(F)ccc3c1=O)C(Cc1ccccc1)NC2=O (stereo not drawn)	-7.13
Cc1ccccc1C(=O)Nc1ccc(C(=O)N/N=C/c2ccncc2)cc1	2.08
CCOC(=O)N1CCN(C(=O)c2ccc(Cl)c(S(=O)(=O)N3CCOCC3)c2)CC1	-13.1
O=C1CCc2cc(S(=O)(=O)NCCc3ccccc3)cc3c2N1CC3	-7.2
O=C(/C=C/c1ccco1)Nc1ccc2nc3n(c(=O)c2c1)CCCC3	-8.17
COc1cc(OC)c(C(=O)Nc2cccnc2)cc1OC	-5.03
CC1=NN(C(N)=S)C(=O)C1N=Nc1ccccc1 (stereo not drawn)	32.6
CCC(CO)NCCNC(CC)CO (stereo not drawn)	13.5
COc1cc(/C=C2/SC(=S)N(CC(=O)O)C2=O)ccc1OC(=O)c1ccco1	3.09
CCOC(=O)c1ccc(NC2c3ccccc3C(=O)N2c2cccnc2)cc1 (stereo not drawn)	-57
CCOC(=O)[C@H]1[C@H]2COc3ccc(Cl)cc3[C@@H]2N2C(=O)c3ccccc3NC(=O)[C@@]12C	2.71
Cc1nonc1CN(C)C(=O)CC1C(=O)NCCN1Cc1ccccc1F (stereo not drawn)	19.3
O=S(=O)(CCc1nc2ccccc2o1)c1ccc2ccccc2c1	7.8
Cc1ccc(NC(=S)N(CCCN2CCOCC2)Cc2ccco2)cc1	4.36
COc1ccc2oc(=N)c(C(=O)Nc3ccc(F)cc3)cc2c1	26.6
Cc1ccc(C(=O)NCC(=O)OCC(=O)Nc2ccc(Cl)cn2)cc1	-0.612
CC1(C)CC(=O)c2cnc3nc4ccccc4n3c2C1	-42.2
COc1ccc(OC)c(/C=N/n2c(COc3ccccc3)n[nH]c2=S)c1	12.2
Cc1ccc(CS(=O)(=O)CC(C)(O)c2ccccc2)cc1 (stereo not drawn)	9.15

SMILES	hERG current change (%, negative = inhibition) at 10uM [%]
Cc1ccc(OCCn2cc(Br)c(=O)[nH]c2=O)cc1	11
CC(=O)NCCn1ccc2ccccc21	4.61
CCc1ccc(NC(=O)C(NS(=O)(=O)c2ccc3c(c2)CCN3C(C)=O)C(C)C)cc1 (stereo not drawn)	2.68
COc1ccccc1C(=O)n1nc(-c2ccccc2)nc1NCc1ccco1	-22.1
O=C(NCc1ccncc1)C(=O)NCC1OCCN1S(=O)(=O)c1cc(F)ccc1F (stereo not drawn)	1.2
CCOC(=O)c1c(NC(=O)C2C3CCC(O3)C2C(=O)O)sc2c1CCCC2 (stereo not drawn)	25.9
COc1ccc(N(CCC#N)C(=O)/C(C#N)=C/c2cccs2)cc1	-17.1
Cc1cc(=O)oc2cc(OC(C)C(=O)N3CCCc4ccccc43)ccc12 (stereo not drawn)	-30
COc1ccc(-n2nc3c(c2NC(=O)C24CC5CC(CC(C5)C2)C4)CS(=O)C3)cc1 (stereo not drawn)	-5.49
Cc1cc(NC(=O)CCC(=O)N(CC(=O)NCC2CCCO2)c2ccc(F)c(Cl)c2)no1 (stereo not drawn)	8.91
CCCCCCOC(=O)Sc1nc2ccccc2o1	8.42
COC(C#CCCN(C)C)(c1ccccc1)c1ccccc1.Cl	-33.3
Cn1c(=O)[nH]c(=O)c2c1nc(SCCO)n2Cc1ccccc1Cl	12.2
COc1ccc(CN(Cc2nc3ccccc3c(=O)[nH]2)C(=O)C(C)(C)C)cc1	12.5
CC(N=C1NS(=O)(=O)c2ccccc21)C(=O)N1CCc2ccccc2C1 (stereo not drawn)	-15.1
Cn1c(=O)c2cc(S(=O)(=O)NC(C(=O)Nc3cccc(F)c3)c3ccccc3)ccc2n(C)c1=O (stereo not drawn)	-7.01
CCOc1cc(S(=O)(=O)n2nc(C)cc2C)ccc1Br	42.6
Cc1ccc(NC(=O)CN(C)C(=O)/C=C/c2cccs2)cc1	-25.2
O=C(NCc1nnc(SCc2ccc(F)cc2)n1-c1ccccc1)C12CC3CC(CC(C3)C1)C2	-13.4

SMILES	hERG current change (%, negative = inhibition) at 10uM [%]
O=Cc1ccccc1OCCOc1ccccc1C=O	-22
O=C(O)C(=O)O.O=C(c1ccccc1)N1CCN(C2CCCCCC2)CC1	-28.8
COc1ccc(NS(=O)(=O)c2ccc(NC(C)=O)cc2)nn1	10.8
CSc1cccc(NC(=O)CCCn2c(=O)c3cccn3c3cccnc32)c1	-39.5
COCCN(C(=O)COC(=O)C1CC1C)c1c(N)n(Cc2ccccc2)c(=O)[nH]c1=O (stereo not drawn)	-2.38
Cc1nc2cc3nc(C(F)(F)F)[nH]c3cc2[nH]1	0.0754
Nc1ccc(C(=O)N/N=C\c2cc(N=Nc3cccc4ccccc34)ccc2O)cc1	19.4
COc1cc(-c2noc(CCC(=O)Nc3cccnc3)n2)cc(OC)c1OC	-3.71
ClCC(Br)CBr (stereo not drawn)	11.8
CCCCCOc1ccccc1C(=O)NCCCC(=O)O	11.7
CN1CCN(c2ccc(Cl)cc2NC(=O)/C=C/c2cccc(F)c2)CC1	-69.9
CC(=O)Nc1cccc(-c2nnc(SCC(=O)N3CCCCC3)n2C)c1	-2.06
O=C(N/N=C/c1ccccc1Cl)c1n[nH]c2c1CCCC2	23.6
O=C(c1cccs1)N1CCC(c2ccccc2)C1 (stereo not drawn)	-1.16
CC(C)C(=O)NCCSc1c[nH]c2ccccc12	7.45
Nc1nnc(SCc2cn3cc(Cl)ccc3n2)s1	5.94
COc1ccc2cc(C(=O)Nc3ccc(S(N)(=O)=O)cc3)sc(=O)c2c1OC	26.8
Cn1c(CN2CCN(C(=O)c3ccco3)CC2)nc2cc([N+](=O)[O-])ccc21	-60
C=CCn1c(SCC(=O)c2cc(C)n(CCOC)c2C)nc2sc(C)c(C)c2c1=O	14.4
